The supplement of paper PMC4604168 (melanoma cell lines)
The list shows a part of the results. Repeats are few or missing, and single values can be far off.

Columns and labels:
Assay in all cases: cell count relative to DMSO control; melanoma cells; higher = more viable cells
Settings in all cases: library dose: standard library concentration; 72 h
[1] = system: SkMel28
[2] = system: SkMel2
[3] = system: SkMel30
[4] = system: SkMel5
[5] = system: UACC257
[6] = system: UACC62
[7] = system: WM115
[8] = system: WM1716
[9] = system: WM1745
[10] = system: WM3526
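Also: cells treated in 1,536-well plates, then fixed and DAPI-stained, with nuclei counted from automated high-throughput microscope images.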

Compound | cell count [1] [%] | cell count [2] [%] | cell count [3] [%] | cell count [4] [%] | cell count [5] [%] | cell count [6] [%] | cell count [7] [%] | cell count [8] [%] | cell count [9] [%] | cell count [10] [%]
CS(=O)(=O)CCNCc1ccc(-c2ccc3ncnc(Nc4ccc(OCc5cccc(F)c5)c(Cl)c4)c3c2)o1 [lapatinib] + Clc1ccc(Nc2nnc(Cc3ccncc3)c3ccccc23)cc1 [vatalanib] (first compound 4 µM, partner dose 10 µM) | 60 | 74.3 | 71.9 | 29.8 | 61.4 | 29.7 | 62.5 | 75 | 65.3 | 57.7
CN1CCN(c2ccc3nc(-c4c(N)c5c(F)cccc5[nH]c4=O)[nH]c3c2)CC1 [Dovitinib] + COCC[n+]1c2c(n(Cc3cnccn3)c1C)C(=O)c1ccccc1C2=O [YM155] (first compound 0.5 µM, partner dose 0.002 µM) | 25.2 | 33.9 | 61.8 | 27.8 | 36.1 | 69.2 | 55.5 | 50.9 | 76.6 | 46
CN1CCN(c2ccc3nc(-c4c(N)c5c(F)cccc5[nH]c4=O)[nH]c3c2)CC1 [Dovitinib] + Nc1ccn([C@@H]2O[C@H](CO)[C@@H](O)C2(F)F)c(=O)n1 [gemcitabine] (first compound 0.5 µM, partner dose 0.002 µM) | 83.5 | 58.9 | 88.4 | 71.3 | 93.9 | 74.6 | 58.2 | 63.3 | 36.9 | 67.2
CN1CCN(c2ccc3nc(-c4c(N)c5c(F)cccc5[nH]c4=O)[nH]c3c2)CC1 [Dovitinib] + Clc1ccc(Nc2nnc(Cc3ccncc3)c3ccccc23)cc1 [vatalanib] (first compound 0.5 µM, partner dose 10 µM) | 40.9 | 43.6 | 61.5 | 43.7 | 56.9 | 60.4 | 74.6 | 63.8 | 33.7 | 56.9
CNC(=O)c1cc(Oc2ccc(NC(=O)Nc3ccc(Cl)c(C(F)(F)F)c3)cc2)ccn1 [sorafenib] + Cn1c(Nc2ccc(C(F)(F)F)cc2)nc2cc(Oc3ccnc(-c4ncc(C(F)(F)F)[nH]4)c3)ccc21 [CHIR265] (first compound 2 µM, partner dose 0.4 µM) | 38 | 46.8 | 62 | 20.7 | 76.6 | 33.9 | 43.2 | 65.2 | 58.5 | 45.2
C[C@@H](Oc1cc(-c2cnn(C3CCNCC3)c2)cnc1N)c1c(Cl)ccc(F)c1Cl [Crizotinib] + Cn1cncc1[C@@](N)(c1ccc(Cl)cc1)c1ccc2c(c1)c(-c1cccc(Cl)c1)cc(=O)n2C [tipifarnib] (first compound 1 µM, partner dose 0.05 µM) | 42.3 | 69.3 | 92.6 | 64.4 | 71.2 | 67.8 | 39 | 53.8 | 65.3 | 58.4
CNC(=O)c1cc(Oc2ccc(NC(=O)Nc3ccc(Cl)c(C(F)(F)F)c3)cc2)ccn1 [sorafenib] + CN(NC(=O)CC(=O)NN(C)C(=S)c1ccccc1)C(=S)c1ccccc1 [STA4783] (first compound 2 µM, partner dose 0.03 µM) | 29.5 | 29.5 | 61.8 | 40 | 74.6 | 31.6 | 13.9 | 47.7 | 22.6 | 65.8
CS(=O)(=O)CCNCc1ccc(-c2ccc3ncnc(Nc4ccc(OCc5cccc(F)c5)c(Cl)c4)c3c2)o1 [lapatinib] + O=C(O)c1ccc(-c2c[nH]c3ncc(-c4ccccc4)cc23)cc1C1CCCC1 [GSK650394] (first compound 4 µM, partner dose 0.8 µM) | 65.3 | 79.9 | 91.3 | 49.6 | 66.6 | 62.2 | 102 | 71.5 | 101 | 60.3
C[C@@H](Oc1cc(-c2cnn(C3CCNCC3)c2)cnc1N)c1c(Cl)ccc(F)c1Cl [Crizotinib] + Nc1nc(F)nc2c1ncn2[C@@H]1O[C@H](CO)[C@@H](O)[C@@H]1O [fludarabine] (first compound 1 µM, partner dose 1 µM) | 6.02 | 1.97 | 18 | 34.3 | 33.2 | 51.3 | 87.8 | 101 | 57.6 | 24.2
CNC(=O)c1cc(Oc2ccc(NC(=O)Nc3ccc(Cl)c(C(F)(F)F)c3)cc2)ccn1 [sorafenib] + Nc1cccc2c1CN(C1CCC(=O)NC1=O)C2=O [lenalidomide] (first compound 2 µM, partner dose 5 µM) | 120 | 101 | 119 | 95.6 | 87.3 | 105 | 131 | 123 | 126 | 107
CN1CCN(c2ccc3nc(-c4c(N)c5c(F)cccc5[nH]c4=O)[nH]c3c2)CC1 [Dovitinib] + CO[C@H]1C[C@@H]2CC[C@@H](C)[C@@](O)(O2)C(=O)C(=O)N2CCCC[C@H]2C(=O)O[C@H]([C@H](C)C[C@@H]2CC[C@@H](OCCO)[C@H](OC)C2)CC(=O)[C@H](C)/C=C(\C)[C@@H](O)[C@@H](OC)C(=O)[C@H](C)C[C@H](C)/C=C/C=C/C=C/1C [everolimus] (first compound 0.5 µM, partner dose 0.1 µM) | 32.3 | 53.3 | 68.5 | 43.8 | 71.5 | 68.6 | 40.4 | 59.1 | 60.9 | 55.3
CS(=O)(=O)CCNCc1ccc(-c2ccc3ncnc(Nc4ccc(OCc5cccc(F)c5)c(Cl)c4)c3c2)o1 [lapatinib] + COc1ccc(Cl)c(Nc2nc3ccccc3nc2NS(=O)(=O)c2cccc(NC(=O)C(C)(C)N)c2)c1 [XL147] (first compound 4 µM, partner dose 4 µM) | 91.2 | 90.4 | 84.6 | 84.3 | 86.9 | 59.9 | 105 | 83.5 | 88.7 | 81.8
CS(=O)(=O)CCNCc1ccc(-c2ccc3ncnc(Nc4ccc(OCc5cccc(F)c5)c(Cl)c4)c3c2)o1 [lapatinib] + NCC(=O)Nc1ccc(-n2nc(C(F)(F)F)cc2-c2ccc3c(ccc4ccccc43)c2)cc1 [OSU03012] (first compound 4 µM, partner dose 5 µM) | 21.6 | 34.4 | 18.3 | 30.7 | 70.6 | 30.8 | 58.4 | 70.2 | 57.4 | 41.8
C=CCNC1=C2C[C@@H](C)C[C@H](OC)[C@H](O)[C@@H](C)/C=C(\C)[C@H](OC(N)=O)[C@@H](OC)/C=C\C=C(/C)C(=O)NC(=CC1=O)C2=O [Tanespimycin] + Cn1c(Nc2ccc(C(F)(F)F)cc2)nc2cc(Oc3ccnc(-c4ncc(C(F)(F)F)[nH]4)c3)ccc21 [CHIR265] (first compound 0.01 µM, partner dose 0.4 µM) | 31.4 | 48.6 | 69.9 | 35.8 | 83.8 | 61.5 | 11 | 64 | 30.9 | 43.1
CN1CCN(c2ccc3nc(-c4c(N)c5c(F)cccc5[nH]c4=O)[nH]c3c2)CC1 [Dovitinib] + CS(=O)(=O)CCNCc1ccc(-c2ccc3ncnc(Nc4ccc(OCc5cccc(F)c5)c(Cl)c4)c3c2)o1 [lapatinib] (first compound 0.5 µM, partner dose 4 µM) | 57.1 | 75.3 | 80.8 | 43.8 | 84.5 | 35.1 | 74.3 | 79.1 | 54.3 | 66.2
C[C@@H](Oc1cc(-c2cnn(C3CCNCC3)c2)cnc1N)c1c(Cl)ccc(F)c1Cl [Crizotinib] + O=C(O)c1ccc(-c2c[nH]c3ncc(-c4ccccc4)cc23)cc1C1CCCC1 [GSK650394] (first compound 1 µM, partner dose 0.8 µM) | 65.8 | 65.7 | 88.2 | 84.5 | 65.1 | 82.6 | 59 | 78.9 | 63.5 | 60.7
CS(=O)(=O)CCNCc1ccc(-c2ccc3ncnc(Nc4ccc(OCc5cccc(F)c5)c(Cl)c4)c3c2)o1 [lapatinib] + Cn1cncc1[C@@](N)(c1ccc(Cl)cc1)c1ccc2c(c1)c(-c1cccc(Cl)c1)cc(=O)n2C [tipifarnib] (first compound 4 µM, partner dose 0.05 µM) | 81.2 | 65.7 | 79.4 | 45 | 101 | 44 | 54.1 | 60.6 | 96.5 | 82.8
CN1CCN(c2ccc3nc(-c4c(N)c5c(F)cccc5[nH]c4=O)[nH]c3c2)CC1 [Dovitinib] + CNC(=O)c1cc(Oc2ccc(NC(=O)Nc3ccc(Cl)c(C(F)(F)F)c3)cc2)ccn1 [sorafenib] (first compound 0.5 µM, partner dose 2 µM) | 56.8 | 66.4 | 68.6 | 57.7 | 68.9 | 73.9 | 67.1 | 72.9 | 44.5 | 72.6
C=CCNC1=C2C[C@@H](C)C[C@H](OC)[C@H](O)[C@@H](C)/C=C(\C)[C@H](OC(N)=O)[C@@H](OC)/C=C\C=C(/C)C(=O)NC(=CC1=O)C2=O [Tanespimycin] + COCC[n+]1c2c(n(Cc3cnccn3)c1C)C(=O)c1ccccc1C2=O [YM155] (first compound 0.01 µM, partner dose 0.002 µM) | 31.5 | 40.5 | 66.7 | 38.4 | 26.9 | 58.2 | 29.7 | 56.6 | 80.7 | 33.4
CS(=O)(=O)CCNCc1ccc(-c2ccc3ncnc(Nc4ccc(OCc5cccc(F)c5)c(Cl)c4)c3c2)o1 [lapatinib] + Cn1nnc2c(C(N)=O)ncn2c1=O [temozolomide] (first compound 4 µM, partner dose 10 µM) | 33.5 | 79.7 | 79.7 | 76.2 | 97.8 | 50.7 | 73.7 | 69.1 | 78.5 | 72.4
